In PubChem BioAssay AID445 (National Center for Advancing Translational Sciences (NCATS), 2006):
The campaign covered roughly 110,000 compounds. About 40 (0.04%) were called active. Inconclusive means that the source gave no clear call. Such entries were picked first, then a sample of the others. Calls come from the whole dose curve; as a rule, active = well fitted curve in the direction sought with a large enough effect in the signal ratio (not every such curve was filed as active); inconclusive = small, poorly fitted or top-dose-only effect, or a change in a side signal; inactive = flat fitted curve, though single readings scatter; the % refers to the signal ratio. Potencies beside an inconclusive call are fits to weak or partial responses and may not hold up.

assay: IkB Signaling; settings: ABC-DLBCL IkBa-CBG/CBR dual luciferase ratio (green luciferase fused to IkBa over red control in OCI-Ly3 lymphoma cells), 4 h; IkBa stabilization activation: at 57.1 µM (top of the series), scaled: untreated 0%, proteasome inhibitor 100% unless noted
Method in brief: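 Luminescence ratio of IκBα-fused green versus native red beetle luciferase in OCI-Ly3 cells, 4 h post-doxycycline with compound; red signal alone, scaled from basal (0%) to zero light (-100%), flagged nonspecific or cytotoxic effects.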
Potency is the fitted concentration of half-maximal effect.

Row | SMILES | IkBa stabilization activation | Potency
1 | Cc1ccc(-c2nnn(CC(=O)N(Cc3ccccc3)C(C(=O)NC(C)(C)C)c3ccncc3)n2)o1 (stereo not given) | inactive | 
2 | CN=c1oc2ccc(Cl)cc2cc1C(N)=O | inactive | 
3 | Cc1ccc(Cl)cc1N1CCN(C(=O)CCCn2c(=O)[nH]c3ccc(Br)cc3c2=O)CC1 | inconclusive: 9.1% [signal inhibitor] | 
4 | CCC(C)Nc1nc2c(c(=O)[nH]c(=O)n2C)n1CCC(C)C (stereo not given) | inactive | 
5 | Nc1c(C(=O)Nc2ccc3c(c2)OCCO3)nnn1CCc1ccccc1 | inactive | 
6 | Cc1cc(N)n(-c2nc(-c3cccnc3)nc3ccccc23)n1 | inactive | 
7 | CCOC(=O)c1cccc2c1-c1ccccc1/C2=N/O | inconclusive: -4.76% [signal inhibitor] | 
8 | O=C(NCCS(=O)(=O)N1CCN(c2ccc(F)cc2)CC1)c1cccc(C(F)(F)F)c1 | inconclusive: 0.956% [signal inhibitor] | 
9 | Cc1ccc(NC(=O)c2c(NC(=O)Cc3ccccc3)sc3c2CCCC3)cc1 | inconclusive: 1.9% [signal inhibitor] | 
10 | O=C(NCC1CCCO1)c1sc(=S)n2c1[nH]c(=O)c1ccc(C(=O)N3CCCCC3)cc12 (stereo not given) | inactive | 
11 | CCOc1ccc(CCNC(=O)CN2C(=O)COc3ccc(S(=O)(=O)N4CCCCCC4)cc32)cc1 | inconclusive: 1.11% [signal inhibitor] | 
12 | O=C(NCc1cccnc1)c1ccc(COc2ccccc2Br)o1 | inconclusive: 2.85% [signal inhibitor] | 
13 | CCC1(C)Cc2nc3sc(C(=O)O)c(N)c3cc2CO1 (stereo not given) | inactive | 
14 | CN(C)c1ccc(CNC(=O)c2ccc(NC(=O)N3CCCCc4ccccc43)cc2)cc1 | inconclusive: 2.34% [signal inhibitor] | 
15 | O=C(CSc1nnc(-c2ccncc2)n1Cc1ccco1)OC1CCCCC1 | inactive | 
16 | COc1ccc(-n2c(SCC(=O)Nc3cccc(C)c3C)nc3c([nH]c4ccccc43)c2=O)cc1 | inconclusive: 0.67% [signal inhibitor] | 
17 | N#Cc1c(-n2ncnc2-c2cccc(Br)c2)sc2c1CCCCC2 |  | inconclusive: 3.16 µM [signal inhibitor, full curve]
18 | O=S(=O)(Nc1cc(F)ccc1F)c1ccc2[nH]c3c(c2c1)CCCCC3 | inactive | 

Row | SMILES | IkBa stabilization activation | Potency
19 | CC(C)(C)c1ccc(Oc2ccc(NC(=O)CCC(=O)OCC(=O)c3ccccc3)cc2)cc1 | inactive | 
20 | O=c1c(-c2ccc(Cl)cc2)nc2cnc(N3CCOCC3)nc2n1C[C@H]1CCCO1 | inactive: -0.394% [at 11.4 µM, scaled: untreated 0%, proteasome inhibitor 100%] | 
21 | O=C(CCn1ccc2cc(S(=O)(=O)N3CCCC3)ccc21)NCc1cccc(Cl)c1 | inconclusive: -0.448% [signal inhibitor] | 
22 | OC(COc1ccc2ccccc2c1Br)Cn1ccnc1 (stereo not given) | inconclusive: 1.34% [signal inhibitor] | 
23 | CCCCCCCCCCCCC(=O)N1CCCC[C@H]1CNC(=O)[C@@H](N)CCCCN | inactive | 
24 | CCOC(=O)C1CCN(S(=O)(=O)c2cnc[nH]2)CC1 | inactive | 
25 | c1ccc(-c2noc(-c3cccnc3)n2)cc1 | inconclusive: 14% [signal inhibitor] | 
26 | Cc1ccc(NC(=O)c2ccc(CNS(=O)(=O)c3ccc4c(c3)C(C)(C)C(=O)N4C)cc2)cc1C | inconclusive: -2.1% [signal inhibitor] | 
27 | CC(=O)N1c2ccc(S(=O)(=O)NCC3CCC(C(=O)Nc4ccc(C)c(C)c4)CC3)cc2CC1C (stereo not given) | inconclusive: -1.43% [signal inhibitor] | 
28 | Cc1cccc(NC(=O)c2cc3ccccc3o2)c1 |  | inconclusive: 15.8 µM [signal inhibitor, partial curve]
29 | COCCCn1c(=N)c(C(=O)NCc2cccnc2)cc2c(=O)n3cc(C)ccc3nc21 | inactive | 
30 | COc1ccccc1N(C(=O)c1snc(C(N)=O)c1N)C(C(=O)NCCC(C)C)c1ccco1 (stereo not given) | inconclusive: 12.1% [signal inhibitor] | 
31 | CSCCC1NC2(C(=O)Nc3c(C)cc(Cl)cc32)[C@@H]2C(=O)N(C3CCCC3)C(=O)[C@H]12 (stereo not given in full) | inconclusive: 0.238% [signal inhibitor] | 
32 | N#C/C(C(=O)c1ccccc1)=C1/CCCN1 | inactive | 
33 | O=C(O)/C=C\C(=O)Nc1ccc2c(c1)C(=O)c1cc(F)ccc1-2 | inactive: 8.41% [at 11.4 µM, scaled: untreated 0%, proteasome inhibitor 100%] | 
34 | COc1ccccc1-c1nc(Nc2ccncc2)c2ccccc2n1 | inactive: -4.26% [at 11.4 µM, scaled: untreated 0%, proteasome inhibitor 100%] | 
35 | N#Cc1c2n(c3c(=O)n(Cc4ccc(Cl)cc4)cnc13)CCCC2 | inactive | 
